Screen size: about 350,000 compounds; about 9,900 (2.8%) were called active. This list was built around the results that the source calls inconclusive (neither active nor inactive); the mix of calls is not that of the screen. The call rests on the fitted dose curve; in most records, active means well fitted activation curve with a large enough effect; inconclusive means small, poorly fitted or top-dose-only effect; inactive means no such curve, though single readings can be large or run the other way. Potencies of inconclusive entries are left out as doubtful fits.
assay: A quantitative high throughput screen for small molecules that induce DNA re-replication in MCF 10a normal breast cells.; further: nearly all actives have a fitted effect of over 50% in size; on activity, positive = re-replication: % of control where 0% means no effect; conditions: MCF 10A DNA re-replication, Hoechst nuclear intensity, 48 h; activity, positive = re-replication: at 46.1 µM (top of the series)
Potency means the concentration at half of the fitted maximal effect; tags describe the fitted curve by direction and shape.

| Compound | Potency | activity, positive = re-replication |
| --- | --- | --- |
| O=C(CSc1ncn[nH]1)N1N=C2/C(=C/c3ccccc3)CCCC2C1c1ccccc1 (stereo not drawn) | inconclusive [activator, single point] | – |
| Cc1ccccc1-n1c(SCc2csc(Nc3ccccc3)n2)nnc1-c1cccnc1 | inconclusive [activator, partial curve, poor fit] | – |
| Cc1cc(C)cc(NC2=NCC(=O)N2Cc2ccccc2)c1 | inconclusive [activator, single point] | – |
| c1ccc(Nc2nc(N3CCOCC3)nc(N3CCOCC3)n2)cc1 | inconclusive [activator, partial curve, poor fit] | – |
| Cc1ccccc1NC(=O)c1sc2nc3c(c(-c4ccco4)c2c1N)CCC3 | inconclusive [activator, partial curve] | – |
| O=C(CSc1nnc2ccccn12)NC(=O)c1ccccc1Cl | inconclusive [activator, partial curve, poor fit] | – |
| Cc1cc(NC(=O)COC(=O)CCS(=O)(=O)c2cc(Cl)ccc2Cl)no1 | active: 20.6 µM | – |
| COc1ccc2c(c1)[C@H]1[C@H](CO2)[C@H](c2ccccc2)[C@]2(C)C(=O)Nc3ccc(C)cc3C(=O)N12 | active: 20.6 µM | – |
| Cc1ccc(S(=O)(=O)c2c(N)n(CCCN(C)C)c3nc4ccccc4nc23)cc1 | active: 20.6 µM | – |
| CCOc1ccc(CC(=O)NNC(=O)/C=C/C(=O)O)cc1 | inconclusive [activator, partial curve, poor fit] | – |
| O=C(NC1CC2CCCC(C1)N2Cc1ccc(F)cc1)c1ccc(F)cc1 (stereo not drawn) | inactive | – |
| O=C(Nc1ccc2c(c1)C(=O)N(c1ccccc1)C2=O)c1cccs1 | inconclusive [activator, partial curve, poor fit] | – |
| Cc1ccc(C)c(-c2ccc(=O)n(Cc3ccc(F)cc3Cl)n2)c1 | inconclusive [activator, single point] | – |
| O=C(COC(=O)c1ccc(Cl)nc1)NNC(=O)c1ccc(Br)cc1 | inactive | – |
| COCCN(C(=O)CCC(=O)Nc1cc(C)on1)C(C(=O)NC1CCCC1)c1ccccc1C (stereo not drawn) | inactive | – |
| Cn1c(SCc2cccc(F)c2)nnc1-c1ccncc1 | inconclusive [activator, partial curve, poor fit] | – |
| Cc1ccccc1S(=O)(=O)Oc1ccc2ccc(O)cc2c1 | inconclusive [activator, partial curve] | – |
| C(=N\N1CCN(Cc2cccc3ccccc23)CC1)/c1cccnc1 | active: 25.9 µM | – |
| NS(=O)(=O)c1ccc(CCNC(=O)c2ccc[nH]c2=S)cc1 | inactive | – |
| COc1ccc(C(=O)NCC(=O)N/N=C/c2cccc(OC(=O)c3ccco3)c2)cc1OC | active: 3.26 µM | – |
| Cc1cc(C(=O)N/N=C2\CC(=O)c3ccccc32)c(C)n1-c1ccccc1 | inconclusive [activator, partial curve, poor fit] | – |
| COc1c(Cl)cnn(-c2ccccc2)c1=O | inconclusive [activator, single point] | – |
| COc1ccccc1N(CC(=O)Nc1ccccc1C(=O)NCC(C)C)S(C)(=O)=O | inconclusive [activator, single point] | – |

| Compound | Potency | activity, positive = re-replication |
| --- | --- | --- |
| CC1Sc2ccc(S(=O)(=O)CCC(=O)NC3CCCC(C)C3C)cc2NC1=O (stereo not drawn) | inconclusive [activator, single point] | – |
| CCOC(=O)c1c(CSc2ccc(CC)cc2)oc2ccc(O)c(CN(C)C)c12 | inconclusive [activator, single point] | – |
| O=C(COc1cc(O)c2c(=O)c3ccccc3oc2c1)OCc1ccccc1 | inconclusive [activator, partial curve, poor fit] | – |
| CCOC(=O)c1cnc2c(cnn2C)c1Oc1ccc(OC)cc1 | inconclusive [activator, single point] | – |
| CCN(CC)C(=O)N1CCN(c2c([N+](=O)[O-])c(=O)oc3ccccc23)CC1 | inactive | – |
| COc1cccc(/C=N/NC(=O)CNC(=O)c2ccncc2)c1O | inactive | – |
| CC(=O)c1c(O)cc2n(c1=O)-c1ccc(Cl)cc1C2(C)C | inconclusive [activator, single point] | – |
| CN(Cc1ccccc1)c1ccc(C(CC(N)=O)NC(=O)Cc2ccc(Br)cc2)cc1[N+](=O)[O-] (stereo not drawn) | inactive | – |
| COc1ccccc1/C=C(/C(=O)NCCCn1ccnc1)c1ccccc1 | inconclusive [activator, single point] | – |
| COc1ccc(NC(=S)NC(=O)c2cccnc2)cc1 | inactive | – |
| Cc1cc2oc(=O)c(CC(=O)NCCCN(C)C)c(C)c2c2occ(C(C)(C)C)c12 | inconclusive [activator, single point] | – |
| CCOc1ccc2nc(CN3CCN(Cc4ccccc4OCC)C(CCO)C3)ccc2c1 (stereo not drawn) | inconclusive [activator, single point] | – |
| CNc1nc(Nc2ccc(Br)cc2)nc(N)c1[N+](=O)[O-] | inconclusive [activator, partial curve, poor fit] | – |
| Cc1ccc(C2=NOC(=O)/C2=C\C=C\c2ccccc2)cc1 | active: 5.17 µM | – |
| O=C(c1ccc(Cl)cc1)C(CN1CCCC1)c1ccccc1 (stereo not drawn) | active: 4.11 µM | – |
| CN(Cc1cccc(F)c1)C(=O)CN1C(=O)NC2(CCc3ccccc32)C1=O (stereo not drawn) | inactive | – |
| COc1cc(CNCCNC(=O)c2nonc2N)ccc1OCc1ccc(Cl)cc1 | inconclusive [activator, single point] | – |
| COc1ccccc1NS(=O)(=O)c1cccc(C(=O)N2CCN(C/C=C/c3ccccc3)CC2)c1 | inactive | – |
| CN(C)c1cc[n+](Cc2c(Cl)cccc2Cl)cc1 | inconclusive [activator, partial curve, poor fit] | – |
| O=C(Cn1nnc(-c2ccc(F)cc2)n1)Nc1ccc2c(c1)OCCO2 | inconclusive [activator, single point] | – |
| CCN(CC)C(=O)C1CCCN(C(=O)c2oc3ccc(C)cc3c2C)C1 (stereo not drawn) | inconclusive [activator, partial curve, poor fit] | – |
| C=C(NC(=O)C(=C)NC(=O)c1csc(C2=NC3c4csc(n4)C4NC(=O)c5csc(n5)C(C(C)(O)C(C)O)NC(=O)C5CSC(=N5)/C(=C/C)NC(=O)C(C(C)O)NC(=O)c5csc(n5)C3(CC2)NC(=O)C(C)NC(=O)C(=C)NC(=O)C(=C)NC(=O)C(C(C)C)NC2C=Cc3c(C(C)O)cc(nc3C2O)C(=O)OC4C)n1)C(N)=O (stereo not drawn) | inconclusive [activator, full curve, poor fit] | – |
| O=C(c1ccccc1)C1OC1C(=O)c1ccccc1 (stereo not drawn) | active: 9.2 µM | – |

| Compound | Potency | activity, positive = re-replication |
| --- | --- | --- |
| COc1ccc(-c2cc(C(=O)OCC(=O)N3CCCCC3)c3ccccc3n2)cc1OC | inconclusive [activator, single point] | – |
| c1ccc(CSc2nnc(Cc3ccccc3)o2)cc1 | inactive | – |
| C[C@H](O)[C@@H]1C(=O)N2CCc3ccc(-c4ccccc4)cc3[C@@H]2C[C@@H]1N(C)C(=O)NC1CCCCC1 | inconclusive [activator, single point] | – |
| C[C@H]1CN=C(N(C)C)N1CCCCc1ccccc1 | inactive | – |
| Cc1ccc(-c2nnc(Cc3ccc(Cl)cc3)o2)cc1 | inactive | – |
| Cc1ccc(S(=O)(=O)C(C#N)c2nc3ccccc3nc2N2CCN(C)CC2)cc1C (stereo not drawn) | inconclusive [activator, single point] | – |
| O=C1CCC(C(=O)N2CCCCO2)CN1Cc1ccc(Cl)cc1 (stereo not drawn) | inactive | – |
| OCC1OC([S-])[C@H](O)C(O)C1O.[Au+] (stereo partly drawn) | active: 29.9 µM | – |
| COc1ccc(Cl)cc1NC(=O)c1nnn(CC(=O)Nc2cc(C)cc(C)c2)c1N | inactive | – |
| CC(=O)Nc1ccc(Nc2nc(-c3sc(NC(C)=O)nc3C)cs2)cc1 | inconclusive [activator, partial curve, poor fit] | – |
| COc1cc(C(=O)OCc2csc(CC(=O)Nc3ccccc3C)n2)ccc1OCC(C)C | inactive | – |
| COc1ccccc1CNc1ncnc2cc(OC)c(OC)cc12 | inconclusive [activator, single point] | – |
| COc1ccc(N=c2ssnc2Cl)cc1 | – | inactive: 4.67% [at 9.22 µM] |
| Cn1c(SCC(=O)OCc2ccccc2)nnc1-c1ccco1 | inconclusive [activator, single point] | – |
| c1ccc(Cc2nc3ccccc3n2Cc2ccccc2)cc1 | inconclusive [activator, full curve] | – |
| CCOC(=O)c1ccccc1NC(=O)c1ccc2c(SCC(=O)O)c3c(nc2c1)CCCC3 | inconclusive [activator, single point] | – |
| O=C(/C=C/c1cccs1)Nc1ccc(Br)cn1 | inconclusive [activator, full curve, poor fit] | – |
| COC(=O)c1cccc(-n2sc3ccccc3c2=O)c1 | inconclusive [activator, partial curve, poor fit] | – |
| Cc1[nH]c2ccc(C(=O)OC(C)C(=O)NCc3ccccc3)cc2c1C (stereo not drawn) | active: 14.6 µM | – |
| CC1CCCCC1NC(=O)NC(=O)COC(=O)C1=NN(c2ccccc2)C(=O)CC1 (stereo not drawn) | inactive | – |
| O=C(Nc1ccccc1)N1CCCN(Cc2c(F)cccc2Cl)CC1 | inactive | – |
| O=C(CN1CC(=O)Oc2ccccc21)OCC(=O)c1ccc(Br)cc1 | inconclusive [activator, partial curve, poor fit] | – |

— PubChem BioAssay AID624296 (National Center for Advancing Translational Sciences (NCATS), 2012)
